In PubChem BioAssay AID1347073 (National Center for Advancing Translational Sciences (NCATS), 2019):
Hit rate of the full screen: of about 45,000 compounds, about 200 (0.44%) were called active. Inconclusive results (about 7%) are left out. Calls follow the shape of the dose curve; as a rule, active = well fitted activation curve with a large enough effect; inconclusive = small, poorly fitted or top-dose-only effect; inactive = no such curve, though single readings can be large or run the other way. This is one part of the list.

Experiment: qHTS of TDP-43 Inhibitors: NCGC Sytravon Library Screen; also: 0% is about no effect; nearly all actives have a fitted effect of over 55% in size
Details: yeast TDP-43 toxicity rescue, BacTiter-Glo growth, 24 h; series mostly up to 46.1 µM; growth rescue (activation): at the top concentration
Method in brief: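 TDP-43-expressing yeast, pregrown in raffinose, seeded at OD600 0.02 in galactose medium with compound for 24 hr at 30 deg C. Growth read by BacTiter-Glo luminescence, so rescue of toxicity appears as activation.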

Row | Structure (SMILES) | growth rescue (activation)
1 | O=S(=O)(c1cccs1)N1CN(C2CCCCC2)c2nc3ccccc3nc21 | inactive: 11.7%
2 | COc1ccccc1NS(=O)(=O)c1ccc2oc(=S)[nH]c2c1 | inactive: 16.7%
3 | CC(C(=O)N1CCCCCC1)N(c1ccc(Cl)cc1)S(C)(=O)=O (stereo not given) | inactive: 11.8%
4 | O=C(/C=C/c1ccc(-c2ccc(F)cc2)o1)N1CCCC1 | inactive: 30.4%
5 | COc1cc2c(cc1OC)CN(CC(=O)NC(=O)NCc1ccccc1)CC2 | inactive: 6.13%
6 | COCCNC(=O)C(c1ccc(O)cc1)N(Cc1cccs1)C(=O)CCC(=O)Nc1ccccn1 (stereo not given) | inactive: -7.45%
7 | OCCNCCOc1ccccc1F | inactive: -20.8%
8 | N/C(=N\OC(=O)CN1C(=O)c2ccccc2C1=O)c1ccc(Br)cc1 | inactive: -2.32%
9 | Cc1cc(Br)c(NC(=O)COC(=O)CSc2nnc(-c3ccc(Cl)cc3)o2)c(Br)c1 | inactive: -4.57%
10 | Cc1ccccc1S(=O)(=O)N(CC(O)CN1C(=O)NC(C)(C)C1=O)c1ccccc1 (stereo not given) | inactive: 1.8%
11 | COc1ccc(S(=O)(=O)N2CCN(C(=S)Nc3ccc(S(N)(=O)=O)cc3)CC2)cc1 | inactive: 8.49%
12 | COCOc1ccc(-c2ncc(OCCN3CCCC3=O)nc2NC(=O)c2cc3ccccc3s2)cc1 | inactive: 15.3%
13 | N/C(=N\N=C\c1ccc(O)cc1)c1nonc1N | inactive: 9.51%
14 | COc1ccccc1NC(=S)N1CCC(NC(=O)c2ccco2)CC1 | inactive: 12%
15 | COc1cccc(C(=O)Nc2ccc(NC(=O)C3CCCCC3)nc2)c1 | inactive: 7.13%
16 | COc1cccc(/C=C/C(=O)c2ccc(NS(=O)(=O)c3ccc(C)cc3)cc2)c1 | inactive: 3.48%
17 | Cc1cccc(C2CC3(CC(C)(C)NC(=S)N3)Oc3cc(O)ccc32)c1 (stereo not given) | inactive: -2.21%
18 | CC1(C(=O)Nc2ccc3c(c2)OCO3)CCN1Cc1csc2ccccc12 (stereo not given) | inactive: 1.52%
19 | CC(C)(C)NC(=O)C(c1ccc(F)cc1)N(C(=O)CCC(=O)Nc1ccccn1)C1CCCC1 (stereo not given) | inactive: 10.9%
20 | CC1CCN(S(=O)(=O)c2ccc(NC(=O)C3CCN(C(=O)c4ccco4)CC3)cc2)CC1 | inactive: 9.43%
21 | COc1cc(C(=O)OC2CCOC2=O)c([N+](=O)[O-])cc1OC (stereo not given) | inactive: -6.26%
22 | O=C(COC(=O)/C=C/c1ccc(OC(F)F)cc1)Nc1cccc(S(=O)(=O)N2CCOCC2)c1 | inactive: 9.59%
23 | COC(=O)c1cc([N+](=O)[O-])ccc1N1CCN(Cc2ccccc2)CC1 | inactive: -14.1%
24 | Nc1nonc1-n1nnc(C(=O)N/N=C/c2ccccc2Cl)c1-c1ccccc1 | inactive: -2.92%
25 | COc1ccc(C(=O)NCC2(N3CCCCC3)CCCCC2)cc1S(=O)(=O)N(C)C | inactive: 1.04%
26 | COc1ccc(C(O)(CC(C)C)C(CN2CCOCC2)c2ccccc2)cc1 (stereo not given) | inactive: 9.02%
27 | CC(C(=O)NC1CCCC1)N1CCN(Cc2ccccc2)CC1 (stereo not given) | inactive: 17.3%

Row | Structure (SMILES) | growth rescue (activation)
28 | Cc1c(NC(=O)c2c([N+](=O)[O-])cnn2C)c(=O)n(-c2ccccc2)n1C | inactive: 4.6%
29 | O=C(c1cccc(OC2CCN(Cc3cccc(OCCO)c3)CC2)c1)N1CCCC1 | inactive: 14.1%
30 | CC(=O)c1ccc(-n2c(CCC(=O)O)ccc2-c2ccc(C)cc2)cc1 | inactive: 4.11%
31 | CC/C(=N\Nc1ccccc1[N+](=O)[O-])c1ccc(O)cc1 | inactive: -3.86%
32 | Cc1nnc(NC(=O)CCS(=O)(=O)Cc2ccccc2)s1 | inactive: -1.32%
33 | CCCCc1nnc(NC(=O)CSc2nc(O)c(-c3ccccc3)c(=O)[nH]2)s1 | inactive: 15.8%
34 | CCOc1ccc(NC(=S)N(CCN2CCOCC2)Cc2cc3cc4c(cc3[nH]c2=O)OCO4)cc1 | inactive: 3.22%
35 | COc1cc(C=O)ccc1OCCOc1ccccc1[N+](=O)[O-] | inactive: 13%
36 | NCCNc1cc(N2CCCC2)ccc1[N+](=O)[O-] | inactive: -0.736%
37 | Cc1ccc(C)c(N2C(=N)S/C(=C\c3ccc(-c4ccccc4C(=O)O)o3)C2=O)c1 | inactive: 27.7%
38 | Cn1nc(C(C)(C)C)cc1C(=O)N1CCCCC1c1cc(C(=O)Nc2cccc(C#N)c2)no1 (stereo not given) | inactive: 9.4%
39 | CCOc1ccc(S(=O)(=O)NC(C)C(=O)NCc2cccnc2)cc1 (stereo not given) | inactive: 8.41%
40 | CCOc1ccc(Oc2c(/C=N/NC(C)=O)c(C)nn2-c2ccccc2)cc1 | inactive: -4.02%
41 | Oc1c(Cl)cc(Cl)cc1/C=C/c1ccc2cccc(O)c2n1 | inactive: 24.4%
42 | COc1ccc2cc(CN(CCc3ccccc3)Cc3nnnn3Cc3ccco3)c(=O)[nH]c2c1 | inactive: 6.95%
43 | Cn1nc(C(F)(F)F)c2cc(NC(=O)OCc3ccc(C(C)(C)C)cc3)sc21 | inactive: 13.9%
44 | Cc1ccc(NC(N)=S)cc1 | inactive: 9.93%
45 | O=C(CSc1nnc(-c2cccnc2)s1)Nc1ccc(C(=O)O)cc1 | inactive: -20.8%
46 | O=C(COC(=O)c1sc2ccccc2c1Cl)Nc1ncc(Cl)cc1Cl | inactive: 1.8%
47 | CCOC(=O)C1CCCN(C(=O)c2ccc(Cl)cc2)C1 (stereo not given) | inactive: 12.9%
48 | COc1ccc(Nc2nc(-c3cccc([N+](=O)[O-])c3)nc3ccccc23)c(OC)c1 | inactive: -38%
49 | CCOc1ccc(C(C)=O)cc1COc1cccnc1[N+](=O)[O-] | inactive: 2.4%
50 | O=[N+]([O-])c1cccc(N(CC2CO2)S(=O)(=O)c2ccccc2)c1 (stereo not given) | inactive: 7.67%
51 | CCOC(=O)Nc1cc(C)c(Cl)cc1OC | inactive: 18.4%
52 | O=C(Nc1ccccc1Cl)c1cc(C2CCCCN2S(=O)(=O)c2ccccc2)on1 (stereo not given) | inactive: 6.53%
53 | COc1nc(NC(C)C)nc(N(C#N)CN2C(=O)c3ccccc3S2(=O)=O)n1 | inactive: 28.9%
54 | O=C(CSc1n[nH]c(-c2ccc(Br)cc2)n1)N1CCOCC1 | inactive: -26.7%

Row | Structure (SMILES) | growth rescue (activation)
55 | CCN(C(=O)COC(=O)c1c(C)nn(-c2ccccc2)c1C)C1CCS(=O)(=O)C1 (stereo not given) | inactive: 5.44%
56 | Cc1ccc(OCC(=O)NCC(=O)n2nc(C)cc2C)cc1 | inactive: 34.6%
57 | CCCCN(CCCC)Cc1ccc(C(=O)NNC(=O)Nc2ccc(Cl)cc2)o1 | inactive: -1.7%
58 | CC(NCC1COc2ccccc2O1)C1COc2ccccc2O1 (stereo not given) | inactive: -14.1%
59 | COc1ccc(C2C3=C(CC(C)(C)CC3=O)Oc3ncn(CC(C)C)c(=N)c32)cc1 (stereo not given) | inactive: 26.8%
60 | COc1ccc(Oc2cn[nH]c2-c2ccc(O)cc2O)cc1 | inactive: 9.82%
61 | Nc1nc(Cl)cc(NCCc2ccc(O)cc2)n1 | inactive: -13%
62 | Cn1ncc([N+](=O)[O-])c1C(=O)Nc1cccc2ccccc12 | inactive: -2.46%
63 | COc1cc2c(c(OC)c1OC)-c1ccc(NC(=O)c3ccccc3)c(=O)cc1[C@@H](NC(C)=O)CC2 | inactive: 12.8%
64 | Cc1cc(S(=O)(=O)N(Cc2ccc(C(C)(C)C)cc2)Cc2cccs2)ccc1-n1cnnn1 | inactive: 17.6%
65 | COc1ccc(C(=O)Oc2ccc3ccc(=O)oc3c2)cc1 | inactive: 3.07%
66 | Cc1ccccc1NC(=O)Nc1nc(C(N)Cc2ccccc2)cs1 (stereo not given) | inactive: -0.25%
67 | Nc1nc2c(s1)CCCCCCCCCC2 | inactive: -0.955%
68 | CC(C)(C)Nc1c2ccccc2nc2ccccc12 | inactive: -1.54%
69 | O=C(O)C1Cc2ccccc2CN1S(=O)(=O)c1ccccc1 (stereo not given) | inactive: -4.69%
70 | CCN(Cc1ccncc1)C(=O)CCc1nnc(CCC2CCCCC2)o1 | inactive: 15.9%
71 | Cc1cc(NC(=O)C2CC(=O)N(c3ccc(F)cc3)C2)no1 (stereo not given) | inactive: 1.5%
72 | CCc1cccc(C)c1NC(=O)Cn1cnc2c1c(=O)n(C)c(=O)n2C | inactive: -3.05%
73 | Cc1ccc(Nc2nnc(SCC(O)=C(C#N)c3nc4ccccc4[nH]3)s2)c(C)c1 | inactive: 17.7%
74 | CCOC(=O)C1CCN(C(=O)CSc2nccc(C)n2)CC1 | inactive: 8.31%
75 | COc1ccc(N(CC(=O)NCCc2ccccc2)C(=O)CCC(=O)Nc2ccccn2)cc1 | inactive: 7.48%
76 | COc1cc(C(c2c(O)cc(C)[nH]c2=O)c2c(O)cc(C)[nH]c2=O)ccc1O | inactive: -6.38%
77 | Cc1ccc(N(CC2CO2)S(=O)(=O)c2ccc(C)cc2)cc1 (stereo not given) | inactive: 8.67%
78 | CCNC(=O)C1(C)CCN(C(=O)c2cccc3ccccc23)C1 (stereo not given) | inactive: 5.46%
79 | Cc1ccc(C2OCC3(CO2)COC(c2ccc(C)cc2)OC3)cc1 (stereo not given) | inactive: -2.01%
80 | CC(C)N1CCN(C(=O)c2cccc(Cl)c2)CC1 | inactive: 5.75%
81 | CC1Oc2ccc(C#N)cc2N(Cc2cccc(F)c2)C1=O (stereo not given) | inactive: 28.3%

Row | Structure (SMILES) | growth rescue (activation)
82 | O=C(O)c1cc2ncc(-c3[nH]ncc3[N+](=O)[O-])cn2n1 | inactive: -13.7%
83 | CCOc1cc(/C=C(/NC(C)=O)C(=O)O)cc(Cl)c1OCc1cccc(Br)c1 | inactive: -0.004%
84 | CCC(C)(C)NC(=O)c1cc(OC)c(OC)cc1[N+](=O)[O-] | inactive: 5.3%
85 | CN(C)c1cccc(NC(=O)NC2(C)CCS(=O)(=O)C2)c1 (stereo not given) | inactive: -1.74%
86 | Cc1cccc(OCC(=O)NCCNC(=O)c2cnccn2)c1 | inactive: -1.38%
87 | CN(C)S(=O)(=O)c1cccc(C(=O)Nc2cc(S(=O)(=O)N3CCOCC3)ccc2O)c1 | inactive: 10.6%
88 | O=C(C1CCCN1S(=O)(=O)c1cccc2nsnc12)N1CCCCC1 (stereo not given) | inactive: 12%
89 | Cc1ccc(CNC(=O)[C@@H](NC(=O)Cc2ccccc2)C(C)C)cc1 | inactive: -23.6%
90 | CC(C)c1ccc(CC(=O)N2CCC2(C)C(=O)NCc2cccc3ccccc23)cc1 (stereo not given) | inactive: 19.1%
91 | O=C(CSc1nncs1)Nc1cccc2ccccc12 | inactive: 27.3%
92 | Cc1ccc(S(=O)(=O)N2CCCCC2C(=O)O)cc1 (stereo not given) | inactive: -8.74%
93 | Cc1ccc(-c2noc(CN(C(=O)c3ccc4c(c3)OCO4)C(C)C)n2)cc1 | inactive: -5.42%
94 | Cc1cccc(N(C(=O)Cn2nnc(-c3ccc(C)o3)n2)C(C(=O)NC2CCCC2)c2ccncc2)c1 (stereo not given) | inactive: -5.73%
95 | COc1ccc(CNC(=O)c2cccc(NC(=O)c3ccccc3)c2)cc1 | inactive: 2.17%
96 | COc1ccc(C)cc1NC(=O)c1ccc2c(=O)n3c(nc2c1)CCCCC3 | inactive: 23.7%
97 | Cc1nn(-c2ccc(C(=O)O)cc2)c2c1C(=O)CC(C)(C)C2 | inactive: 22.9%
98 | CC(=O)Nc1nc(-c2ccc3c(c2)CC(C)N3C(=O)C2CC2)c(C)s1 (stereo not given) | inactive: 23.9%
99 | CS(=O)(=O)C1=C(O)C(=O)N(c2ccccc2)C1c1ccccc1 (stereo not given) | inactive: -11.3%
100 | CS(=O)(=O)Nc1nc2n(n1)C(c1ccccc1)CC(c1ccccc1)N2 (stereo not given) | inactive: 11.2%
101 | CC(=O)Nc1ccc(NC(=O)COc2ccc(S(=O)(=O)NC(C)c3ccccc3)cc2)cc1 (stereo not given) | inactive: 6.04%
102 | O=c1[nH]c2cc3c(cc2cc1CN(Cc1cccnc1)C(=S)NCc1ccco1)OCCO3 | inactive: 9.19%
103 | NC(=O)c1cccc(-c2cccc3nccn23)c1 | inactive: -5.92%
104 | COc1cc(/C=N/NC(=O)c2ccc(=O)[nH]n2)ccc1O | inactive: 2.91%
105 | O=C(CN(CCO)c1ccccc1)Nc1ccc(Cl)c(S(=O)(=O)N2CCOCC2)c1 | inactive: 3.44%
